PubChem BioAssay AID1159614 (National Center for Advancing Translational Sciences (NCATS), 2016)
Screen size: about 45,000 compounds; about 65 (0.1%) were called active. Calls come from the whole dose curve; as a rule, active = well fitted activation curve with a large enough effect; inconclusive = small, poorly fitted or top-dose-only effect; inactive = no such curve, though single readings can be large or run the other way. The list shows a part of the results.

target: Galactocerebrosidase (Homo sapiens) (UniProt P54803); test: A Novel Cell-Based Assay to Identify Small Molecules for B -Galactocerebrosidase; details: 145M-Twi-hGALC-G270D cells (Twitcher mouse brain line with human GALC G270D), HMU-beta-Gal fluorescence, 48 h; series mostly up to 57.5 µM; activation: at the top concentration; note: 0% is about no effect; nearly all actives have a fitted effect of over 65% in size
Method in brief: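 Fluorescence readout: HMU-β-gal cleavage by mutant GALC (0.1 mM final, citrate/phosphate pH 5.2 with 1 mg/mL taurocholate), stopped with carbonate/bicarbonate plus Triton X-100. Cells: murine Twitcher 145M-Twi expressing human G270D GALC; qHTS for activators.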

UniProt P54803, sequence (P54803 whole entry, looked up): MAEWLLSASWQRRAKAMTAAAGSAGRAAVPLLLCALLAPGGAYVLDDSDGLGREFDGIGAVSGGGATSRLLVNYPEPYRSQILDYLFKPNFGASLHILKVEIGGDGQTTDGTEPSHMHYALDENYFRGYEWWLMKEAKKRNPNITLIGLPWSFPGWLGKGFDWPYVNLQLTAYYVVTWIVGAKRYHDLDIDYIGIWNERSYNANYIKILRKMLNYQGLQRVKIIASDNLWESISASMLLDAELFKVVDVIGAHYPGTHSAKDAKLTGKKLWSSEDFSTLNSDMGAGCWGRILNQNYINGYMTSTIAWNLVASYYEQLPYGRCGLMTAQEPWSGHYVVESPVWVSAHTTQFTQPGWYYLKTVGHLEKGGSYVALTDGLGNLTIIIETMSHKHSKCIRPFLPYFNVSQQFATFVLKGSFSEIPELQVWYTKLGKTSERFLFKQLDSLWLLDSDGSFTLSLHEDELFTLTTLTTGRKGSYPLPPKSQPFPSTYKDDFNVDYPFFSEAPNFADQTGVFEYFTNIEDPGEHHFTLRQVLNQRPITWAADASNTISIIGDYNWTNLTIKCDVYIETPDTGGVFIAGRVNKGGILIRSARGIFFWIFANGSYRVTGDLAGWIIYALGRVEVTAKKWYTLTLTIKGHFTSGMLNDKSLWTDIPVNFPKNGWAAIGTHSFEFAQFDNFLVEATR

activation, inactive:
CC(C)(C)NC(=O)[C@@H]1CN(Cc2cccnc2)CCN1C[C@@H](O)C[C@@H](Cc1ccccc1)C(=O)N[C@H]1c2ccccc2C[C@H]1O -12.4%
CCCN(CCC)C(=O)Cn1c(SCc2cccc(F)c2)nc2cccnc21 -7.11%
N#Cc1cccc(NC(=O)C2CCN(S(=O)(=O)c3ccc4c(c3)CCCN4C(=O)C3CCC3)CC2)c1 -20.6%
CCOc1ccccc1NC(=O)CSc1nc2cc(OC)c(OC)cc2c2nc(CCn3c(C)nc4ccccc43)nn12 -10.3%
Cc1ccc(CNC(=O)c2cc3c(=O)n4cccc(C)c4nc3s2)cc1 -17%
Cc1nc(-c2ccc(F)cc2)sc1CCNC(=O)c1ccccc1C(F)(F)F -29%
Cc1ccc2oc(C(=O)NCC(c3ccc(Cl)cc3)N3CCOCC3)c(C)c2c1 (stereo not given) -17.4%
CC1=C(C(=O)Nc2ccccc2C)C(c2sccc2C)n2ncnc2N1 (stereo not given) -5.13%
Cc1cccc(CSc2ncc(Cl)c(C(=O)Nc3nnc(C)s3)n2)c1 13.5%
Cc1ccc(S(N)(=O)=O)cc1NC(=O)c1c(-c2c(Cl)cccc2Cl)noc1C -6.7%
COc1ccccc1NC(=O)CN1C(=O)C(C)(C)c2ccccc21 -23.3%
Cc1ccc(CNC(=O)CN2C(=O)C3CCCCN3c3ccc(C(=O)N(C)C)cc32)cc1 (stereo not given) -10.6%
CCc1nnc2c(NCc3ccccc3)nc3ccccc3n12 -11.6%
Cc1ccc(C(=O)N2CCN(c3ccccc3)CC2)cc1NC(=O)c1nsc2ccccc12 -18.1%
N#Cc1c(C(F)(F)F)cc(-c2cccs2)nc1SCC(=O)Nc1cccc(Br)c1 -27.2%
Cc1ccc(-c2nnc(Nc3ccc(F)cc3)c3ccccc23)cc1S(=O)(=O)NC(C)C -17.9%
CCOc1ccc(-c2cc(NC(=O)Nc3ccccc3Cl)c(C(=O)OC)s2)cc1 -13.6%
O=C(NCCCN1CCN(c2ccccc2F)CC1)c1ccc2nc(Cc3ccccc3)oc2c1 -22.9%
CCOC(=O)COc1ccc(CC)cc1C(=O)c1ccn2nc(-c3ccc(C)cc3)cc2n1 7.88%
CCN(CC)CCNC(=O)CN1C(=O)CSc2ccc(S(=O)(=O)N3CCOCC3)cc21 -6.06%
Cc1ccc(/C=C/c2onc(C)c2S(=O)(=O)N2CCC(C(=O)Nc3cccc(C#N)c3)CC2)cc1 -23.8%
Cc1ccccc1CSc1nc2c([nH]c3ccccc32)c(=O)n1-c1ccccc1 -0.176%
Cn1c(-c2cccc(Br)c2)cnc1NCc1cccc(F)c1 -6.96%
Cc1cccc(-c2nnc(SCC(=O)Nc3ccc(C)c(C)c3)o2)c1 -18.5%
COc1ccc2cc1Oc1ccc(cc1)C[C@H]1c3c(cc4c(c3Oc3cc5c(cc3OC)CCN(C)[C@@H]5C2)OCO4)CCN1C -14.2%
CC(C)c1ccc(NC(=O)C2CCCN(S(=O)(=O)c3ccc4[nH]c(=O)oc4c3)C2)cc1 (stereo not given) -9.03%
CCCN(CCC)CCCNC(=O)Cn1ncn2c(cc3sc(CC)cc32)c1=O -11%
Cc1ccc(CNC(=O)CN2N=C(c3ccc(C)cc3)CCC2=O)cc1 -17.7%
CCc1ccccc1NC(=O)c1nc2nc(C)cc(C(F)F)n2n1 -9.41%
CCN(CC)S(=O)(=O)c1ccc2c(c1)c(=O)c(C(=O)N1CCN(c3ccc(OC)cc3)CC1)cn2C -7.72%
COc1cccc(CN2C(=O)c3ccccc3C2C(=O)NCCc2ccccc2)c1 (stereo not given) -10.8%
CCC(C)NC(=O)c1ccc(Cn2c(=O)c3cccn3c3cccnc32)cc1 (stereo not given) 0.0742%
COc1ccc(Nc2nnc(-c3cc4cc(Cl)ccc4oc3=O)s2)cc1 -7.11%
COc1cc(SC)ccc1C(=O)N1CCn2c3c(c4cc(C)ccc42)CCCC31 (stereo not given) -13.6%
CCCS(=O)(=O)c1c(S(=O)(=O)CCC)c2cc(C(C)(C)C)ccn2c1C(=O)c1ccc(C)cc1 -6.43%
O=C(CCCCCn1c(=O)[nH]c2ccsc2c1=O)NCc1ccccc1 -13.6%
Oc1c(C(c2cccc(Br)c2)N2CCCC2)sc2nc(-c3ccco3)nn12 (stereo not given) 10.4%
CCOc1ccc(CNC(=O)Cn2nc(N3CCN(c4ccccc4)CC3)ccc2=O)cc1 -34.1%
COc1ccccc1CNC(=O)CSc1nc2nc(C)c(Cc3ccccc3C)c(C)n2n1 -21.4%
O=C(NCc1ccc(Cl)cc1)C1CCN(C(=O)c2cnn(-c3ccccc3)c2-n2cccc2)CC1 -11.4%
Cc1ccc(C(=O)Nc2c(C)nc3ccccn3c2=O)cc1 -5.54%
O=C(NCc1cccs1)c1ccc(CSc2nc3cccnc3n2Cc2ccc(F)cc2)cc1 -8.54%
Cc1ccc2c(c1)cc1c(=O)n(CC(=O)NC(C)CCc3ccccc3)nc(C)n12 (stereo not given) -10.6%
CCOc1nc(NC(=O)NS(=O)(=O)Oc2cccc(Cl)c2)nc(-c2ccccc2)n1 -5.56%
Cc1cc(C)cc(NC(=O)C2CCN(C(=O)c3cnn(-c4ccccc4)c3-n3cccc3)CC2)c1 -15.1%
CC1CCn2c(nc3cc(C(=O)NCc4ccc(F)cc4)ccc32)C1 (stereo not given) -17.9%
Cn1c2c(c(=O)n(C)c1=O)C(c1ccccc1[N+](=O)[O-])CC(=O)N2 (stereo not given) -6.69%
CCc1ccccc1NC(=O)CSc1nc2n[nH]c(C)c2c(=N)n1-c1cccc(C)c1 -12%
COc1ccccc1CNc1ccc(-c2nc(-c3ccccc3C)no2)cc1[N+](=O)[O-] -42.6%
COc1ccc(-c2nn(-c3ccc(F)cc3)c3c2cnc2cc4c(cc23)OCO4)cc1 1.85%
CCOC(=O)c1nn2c(C(F)(F)F)cc(-c3ccc(C)cc3)nc2c1Cl -0.7%
CCCCC(=O)Nc1nnc(SCc2cc(=O)n3cc(C)ccc3n2)s1 -5.02%
O=C(Nc1ccc(F)c(F)c1)c1cc(S(=O)(=O)NCc2ccc3c(c2)OCO3)ccc1F -8.26%
COc1ccc(C2=NC3(CCCCCC3)N(CC(=O)Nc3cccc(Cl)c3)C2=O)cc1 -7.53%
CC(C)(C)NCC(O)c1ccc(O)c(CO)c1 (stereo not given) -12.7%
COc1cccc(CNC(=O)CN2CCCN(Cc3ccccc3)S2(=O)=O)c1 -7.23%
Cc1ccn2c(Nc3ccc4c(c3)OCO4)c(-c3ccc(Cl)cc3)nc2c1 -8.97%
COc1ccc(-c2c(C#N)c(SCC(=O)Nc3ccc(C)cc3)nc(C)c2C(=O)Nc2ccccc2)cc1 -4.38%
Cc1ccc(CNC(=O)CSc2nc(=O)n(Cc3ccco3)c3c2CCC3)cc1 -8.72%
CCOc1ccc(-c2nnc(SCC(=O)NC(C)CC)nc2-c2ccc(OCC)c(OC)c2)cc1OC (stereo not given) -1.99%
COc1cccc(NC(=O)Cn2c(=O)ccc3cc(S(=O)(=O)N4CCC(C)CC4)ccc32)c1 -22.3%
CCSc1nc2c([nH]c3ccccc32)c(=O)n1-c1cccc(OC)c1 -31.8%
COc1ccc(Cl)cc1S(=O)(=O)N1CCN(CC(=O)Nc2ccccc2C(F)(F)F)CC1 -9.05%
CCOc1ccc(-n2nc3ccc(NC(=O)c4cccc(F)c4)cc3n2)cc1 -4.41%
CC1CCN(C(=O)Cn2cc(SCC(=O)Nc3ccccc3C(F)(F)F)c3ccccc32)CC1 15.7%
COc1ccc(-c2nc(CCNC(=O)c3c(F)cccc3Cl)cs2)cc1 -23.2%
CCCCc1nn2c(=O)cc(COC(=O)c3ccco3)nc2s1 -5.06%
CCCCNc1ccc(-c2nc(-c3ccncc3)no2)cc1[N+](=O)[O-] -15.4%
COc1ccc(Cn2cc(C(=O)c3ccc(F)cc3)c(=O)c3cc4c(cc32)OCCO4)cc1 -11.9%
Cc1nn(C)c(C)c1CCNC(=O)Nc1cccc(Cl)c1C -4.28%
COc1cc(C(=O)Nc2cccc(OCc3cc(=O)n4cc(C)sc4n3)c2)cc(OC)c1OC -9.59%
CC(=O)Nc1nonc1-c1nnc(SCC(=O)Nc2cccc(C)c2C)n1-c1ccccc1 -11.2%
COc1ccc(-c2nc3ccccc3o2)cc1NC(=O)c1ccc(-c2ccc(Br)cc2)o1 -7.7%
Cc1ccc(CN2C(=O)C(=O)c3cc(Br)cc(C)c32)cc1 -10.1%
CSc1ccc(CCNC(=O)Cn2ncn3c(cc4ccccc43)c2=O)cc1 -14%
CCN1C(=O)N(c2ccc(C(C)=O)cc2)S(=O)(=O)c2ccccc21 -6.72%
CCOc1ccc(-n2c(=O)c3c(C)c(C)sc3n(CC(=O)Nc3ccc(CC)cc3)c2=O)cc1 6.76%
Cc1ccccc1Nc1c(-c2cccnc2)nc2cccc(C)n12 -24.1%
CCC(C(=O)Nc1ccccc1)n1nc(-c2cc(C)ccc2C)ccc1=O (stereo not given) -6.08%
Cc1cccc(NC(=O)C2CCCN(S(=O)(=O)c3c(C)n[nH]c3C)C2)c1 (stereo not given) -2.3%
COc1ccc(Br)cc1CNC(=O)c1cnc2sc(N3CCCCCC3)nn2c1=O -11.1%
Cn1nc(-c2ccc(OCC(=O)Nc3ccc(Cl)cc3)cc2)c2ccccc2c1=O -17.8%
CCN(C(=O)c1cc2c(=O)n(CC)c3ccccc3c2s1)c1cccc(C(F)(F)F)c1 -41.6%
COc1ccccc1Nc1c2c(nc3ccc(NC(=O)/C=C/c4cc(OC)c(OC)c(OC)c4)cc13)CCCC2 -50.2%
CCCCCc1ccc(-c2ccc(C(=O)Oc3ccc(C(=O)OC)cc3)cc2)nc1 -11.8%
Cc1ccc(S(=O)(=O)C2(C(=O)Nc3ccc(C(C)C)cc3)CC2)cc1 -15.5%
COc1ccccc1CNC(=O)c1ccc(CSc2nc3ccncc3n2Cc2ccccc2C)cc1 -13.5%
COc1ccc(CNc2nc(-c3ccc(Cl)cc3)nn2C(=O)c2ccccc2)cc1 -6.25%
CC(C)c1ccc(NC(=O)C2Cc3ccccc3N2C(=O)c2ccccc2)cc1 (stereo not given) -21%
Cc1nc(-c2ccc(S(=O)(=O)N(C)Cc3ccccc3)cc2)co1 -23.2%
Cc1cc(C)cc(N2C(=O)CS(=O)(=O)C23C(=O)N(C)c2ccccc23)c1 (stereo not given) -22.5%
Cc1ccc(-n2ncc(C(=O)N3CCN(c4ncccn4)CC3)c2C2CCN(C(=O)OC(C)(C)C)CC2)cc1 -3.69%
CCOc1ccc(-n2cc(-c3ccccc3)c3c(NCc4ccc(F)cc4)ncnc32)cc1 0.529%
CCCN(CCC)S(=O)(=O)c1ccc(N2CCCCS2(=O)=O)cc1 -7.49%
Cc1ccc(NC(=O)C2CCN(c3nc4ccccc4nc3C(F)(F)F)CC2)cc1C -11.8%
